Data reported in PubChem BioAssay AID624296 (National Center for Advancing Translational Sciences (NCATS), 2012).
Out of some 350,000 compounds screened, about 9,900 (2.8%) were called active. Calls come from the whole dose curve; as a rule, active = well fitted activation curve with a large enough effect; inconclusive = small, poorly fitted or top-dose-only effect; inactive = no such curve, though single readings can be large or run the other way. Inconclusive means that the source gave no clear call. No potency is given beside an inconclusive call; the fits are too rough.

Test: A quantitative high throughput screen for small molecules that induce DNA re-replication in MCF 10a normal breast cells. Note: nearly all actives have a fitted effect of over 50% in size.
Conditions: MCF 10A DNA re-replication, Hoechst nuclear intensity, 48 h; series mostly up to 46.1 µM
Potency is the fitted concentration of half-maximal effect; tags give direction and shape of the fitted curve.

Structure (SMILES) | Potency
COc1cc(/C=C2\C(=N)N3N=C(S(C)(=O)=O)SC3=NC2=O)ccc1OCCOc1ccccc1C | inconclusive [activator, single point]
Cc1c(CC(=O)O)c(=O)oc2c(C)c3occ(-c4ccc(Br)cc4)c3cc12 | inconclusive [activator, single point]
